About 310 (0.076%) of roughly 410,000 compounds were called active. The shares of active, inactive and inconclusive entries below differ from those in the screen. The call rests on the fitted dose curve; in most records, active means well fitted curve in the direction sought with a large enough effect; inconclusive means small, poorly fitted or top-dose-only effect; inactive means flat fitted curve, though single readings scatter. Potencies of inconclusive entries are doubtful fits and often do not repeat.
The compounds below were run against DNA dC->dU-editing enzyme APOBEC-3G (Homo sapiens) (UniProt Q9HC16) (assay: qHTS for Inhibitors of Vif-A3G Interactions: qHTS). Conditions: HeLa A3G-eYFP + Vif (tagged APOBEC3G with the HIV-1 protein that degrades it), YFP fluorescence, overnight; series mostly up to 46.1 µM; activity, negative = active: at the top concentration.
UniProt Q9HC16, sequence (Q9HC16 whole entry, looked up): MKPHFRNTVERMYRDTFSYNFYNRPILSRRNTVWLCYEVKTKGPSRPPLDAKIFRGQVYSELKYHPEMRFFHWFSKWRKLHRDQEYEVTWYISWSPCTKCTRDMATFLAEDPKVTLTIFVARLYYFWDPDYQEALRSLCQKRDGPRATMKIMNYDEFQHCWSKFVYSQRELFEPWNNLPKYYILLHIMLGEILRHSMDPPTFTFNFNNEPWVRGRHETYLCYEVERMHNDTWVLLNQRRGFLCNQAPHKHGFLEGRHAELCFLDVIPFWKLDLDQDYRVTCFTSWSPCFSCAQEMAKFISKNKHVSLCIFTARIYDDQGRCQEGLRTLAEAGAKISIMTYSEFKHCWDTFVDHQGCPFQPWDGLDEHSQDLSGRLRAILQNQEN
Method in brief: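 HeLa cells stably expressing Vif and C-terminally eYFP-tagged A3G, seeded overnight at 37 deg C, then exposed to compound by pintool overnight at 37 deg C. Rise in yellow fluorescence (Ex 488/Em 500-530, Acumen) marks blocked Vif-driven A3G degradation.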
Further: nearly all actives have a fitted effect of over 60% in size.
On the % scale 0 is the no-effect control and ±100 the full control effect; potency means the concentration at half of the fitted maximal effect; tags describe the fitted curve by direction and shape.
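Wherever activity, negative = active is given: hits raise eYFP signal because A3G escapes Vif-driven loss.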

| SMILES | Potency | activity, negative = active |
| --- | --- | --- |
| CNc1ccc(Br)cc(C(=O)/C=C/c2cc(OC)ccc2OC)c1=O | inconclusive: 22.4 µM [inhibitor, single point] |  |
| Cc1cc(C(=O)NCC(c2cccs2)N2CCOCC2)ccc1[N+](=O)[O-] (configuration not stated) | inconclusive: 15.8 µM [inhibitor, single point] |  |
| CC(=O)C1=C(c2ccc(Cl)c(Cl)c2)N(C(C)=O)n2c(C)nnc2S1 |  | inactive: -12.7% |
| COc1cc(OC)c(N(C)C(=O)c2nn(C)c3c2CSc2ccccc2-3)cc1Cl |  | inactive: -0.807% |
| CCOC(=O)Nc1ccc2c(c1)N(C(=O)OC)c1ccccc1CC2 | inconclusive: 7.94 µM [inhibitor, partial curve, poor fit] |  |
| CCOC(=O)COc1c(OC)cc(Cl)cc1C1NC(=O)NC(C)=C1C(C)=O (configuration not stated) |  | inactive: 0.423% |
| C(C#CCCCCCCCCC[n+]1ccccc1)#CCCCCCCCCC[n+]1ccccc1 | inactive |  |
| O=C(Nc1ccccc1)c1sc2cc(C(F)(F)F)cnc2c1-c1cccs1 |  | inactive: -5.44% |
| N#CC1=C(N)Oc2cc3c(cc2C1c1ccc(Cl)cc1)OCO3 (configuration not stated) | inconclusive: 5.01 µM [inhibitor, partial curve, poor fit] |  |
| Cc1cc(C)n(-c2nc3c(c(=O)[nH]c(=O)n3C)n2CCc2ccccc2)n1 | inconclusive: 22.4 µM [inhibitor, single point] |  |
| O=C(c1ccc(Br)cc1)c1cc([N+](=O)[O-])ccc1N1CCCCC1 | inconclusive: 0.562 µM [inhibitor, full curve, poor fit] |  |
| Cc1ccc(CNC(=O)Cn2ccn(-c3ccc(C)c(C)c3)c(=O)c2=O)cc1 | inconclusive: 20 µM [inhibitor, single point] |  |
| Nc1nonc1-c1nc2ccccc2n1Cc1ccc(F)cc1 | inconclusive: 2.82 µM [inhibitor, partial curve, poor fit] |  |
| Cn1nnnc1Sc1ncnc2scc(-c3ccc[nH]3)c12 | inconclusive: 15.8 µM [inhibitor, partial curve, poor fit] |  |
| CN(C)c1ccc(C(=O)c2ccc(N(C)C)c(N)c2)cc1N | inconclusive: 12.6 µM [inhibitor, single point] |  |
| Cc1c(C(=O)Nc2cccnc2)oc2ccc(Br)cc12 | inconclusive: 11.2 µM [inhibitor, partial curve, poor fit] |  |
| COC1(c2ccccc2)NC(=S)NN=C1c1ccccc1 (configuration not stated) | inconclusive: 22.4 µM [inhibitor, single point] |  |
| O=C(/C=C/c1ccccc1)NC(=S)Nc1ccccc1 |  | inactive: 2.16% |
| Cc1cc(C(=O)CCl)c(C)n1-c1cccc(S(=O)(=O)N2CCOCC2)c1 |  | inactive: -26% |
| COc1c(C)cc(C(O)c2ncc(-c3ccccc3Cl)[nH]2)cc1C (configuration not stated) | inconclusive: 35.5 µM [inhibitor, single point] |  |
| O=C(NCc1ccccc1)C1Cc2c(-c3ccc(Cl)cc3)ccnc2O1 (configuration not stated) | inconclusive: 0.562 µM [inhibitor, full curve, poor fit] |  |
| COc1ccc(N=Cc2c(O)n(-c3cccc(C)n3)c(=O)c3ccccc23)c(OC)c1 | inconclusive: 28.2 µM [inhibitor, single point] |  |
| O=[N+]([O-])c1ccc(N=Cc2ccc(Br)c([N+](=O)[O-])c2)cc1 | inconclusive: 22.4 µM [inhibitor, single point] |  |

| SMILES | Potency | activity, negative = active |
| --- | --- | --- |
| N#Cc1nc(-c2cccs2)oc1NCCCN1CCOCC1 |  | inactive: 1.46% |
| COc1cccc(N2CCN(Cc3nc4scc(-c5ccccc5)c4c(=O)[nH]3)CC2)c1 | active: 8.91 µM |  |
| COc1ccc(-n2c(/C=C/c3c(C)[nH]c4ccccc34)nc3ccccc3c2=O)cc1 |  | inactive: -8.27% |
| CCOc1ccc(N2C(=O)CC(NCCc3c[nH]c4ccccc34)C2=O)cc1 (configuration not stated) |  | inactive: -2.53% |
| O=C(Nc1cccc(Cl)c1)Nc1csc([N+](=O)[O-])c1 | inconclusive: 20 µM [inhibitor, partial curve, poor fit] |  |
| Cc1cc(SCC(=O)NCC2CCCO2)nc2ccccc12 (configuration not stated) | inconclusive: 15.8 µM [inhibitor, single point] |  |
| Cc1cc2cc(C#N)c(SCC(=O)Nc3nonc3C)nc2cc1C | inconclusive: 25.1 µM [inhibitor, single point] |  |
| O=c1[nH]c(=S)[nH]nc1Cc1ccc(Cl)c(Cl)c1 |  | inactive: 1.51% |
| COc1ccccc1NC(=O)c1cnc(Nc2ccccc2OC)c2ccccc12 | inconclusive: 1.78 µM [inhibitor, full curve, poor fit] |  |
| Oc1ccccc1N=Nc1ccccc1O | inconclusive: 12.6 µM [inhibitor, partial curve, poor fit] |  |
| CCOC(=O)N1C(=O)[C@@](c2ccc(Cl)cc2)(C(C)C)N1C(=O)OCC | inconclusive: 35.5 µM [inhibitor, partial curve, poor fit] |  |
| Cc1ccc(NC(=O)c2ccc(CSc3nccc(C)n3)cc2)cc1 |  | inactive: 2.13% |
| CCN(CC)c1ccc(/C=N/NC(=O)c2ccc(Br)o2)cc1 | inconclusive: 12.6 µM [inhibitor, single point] |  |
| Cc1cc(C)c(C#N)c(SCc2nnc(-c3ccccc3)o2)n1 |  | inactive: -1.44% |
| Nc1ccccc1SC(CC(=O)c1ccccc1)c1ccc([N+](=O)[O-])cc1 (configuration not stated) | inconclusive: 25.1 µM [inhibitor, single point] |  |
| Cc1cc(NC(=O)CSc2nc3ccccc3c(=O)n2C2CCCC2)no1 | inconclusive: 0.631 µM [inhibitor, full curve, poor fit] |  |
| COc1ccc(CCNc2ccc(C(CC(N)=O)NC(=O)c3ccc(Br)cc3)cc2[N+](=O)[O-])cc1 (configuration not stated) | inconclusive: 17.8 µM [inhibitor, single point] |  |
| Oc1ccc(-c2csc(Nc3ccc4c(c3)OCO4)n2)c(O)c1 |  | inactive: -14.6% |
| COc1ccccc1NC(=O)c1cc(Cl)nnc1Cl | inconclusive: 28.2 µM [inhibitor, single point] |  |
| C=CCn1c(SCC(=O)c2ccc(O)c(O)c2)nnc1-c1cccc(C)c1 |  | inactive: 0.757% |
| COc1ccc(C(=O)/C=C/C(=O)N(CC(=O)NC2CCCCC2)CC2CCCO2)c(O)c1 (configuration not stated) | inconclusive: 17.8 µM [inhibitor, single point] |  |
| COc1ccc(NC(=O)c2cn3c4c(ccc(Cl)c4c2=O)OC(C)C3)cc1OC (configuration not stated) |  | inactive: 2.08% |
| CCS(=O)(=O)Nc1cccc(C2=NN(C(=O)c3ccco3)C(c3ccco3)C2)c1 (configuration not stated) | inconclusive: 10 µM [inhibitor, partial curve] |  |

| SMILES | Potency | activity, negative = active |
| --- | --- | --- |
| O=C(N/N=C/c1ccc(Cl)cc1)c1n[nH]c2c1CCCC2 | inconclusive: 0.708 µM [inhibitor, full curve, poor fit] |  |
| CC(C)c1ccc(NC(=O)CCC(=O)NCc2ccco2)cc1 | inconclusive: 22.4 µM [inhibitor, single point] |  |
| COc1cc(O)ccc1-c1nc2ccc(Br)cn2c1Nc1ccccc1C |  | inactive: 4.14% |
| O=C(NCc1ccccc1)C1Cc2c(-c3cccc(F)c3)ccnc2O1 (configuration not stated) | inconclusive: 1.12 µM [inhibitor, full curve] |  |
| Cc1nnnn1/C(=C\c1ccccc1)C(=O)OCC(=O)NC1CCCCC1 | inconclusive: 35.5 µM [inhibitor, single point] |  |
| COc1ccc(C(=O)c2cc([N+](=O)[O-])ccc2N2CCCC2)cc1 | inconclusive: 2.51 µM [inhibitor, full curve] |  |
| Cc1nc(NC(=O)c2ccc(Cl)cc2)sc1Cc1ccc2c(c1)OCO2 | inconclusive: 2 µM [inhibitor, full curve, poor fit] |  |
| CN1CCN(c2ncnc3c2ncn3[C@H]2CN(C)C[C@@H](CO)O2)CC1 |  | inactive: 0.028% |
| CC(=O)c1c(C)n([O-])c2cc(F)c(F)cc2[n+]1=O | inconclusive: 25.1 µM [inhibitor, single point] |  |
| Cc1cccc(NC(=O)CN2C(=O)S/C(=C\c3cc(C)n(C)c3C)C2=O)c1 | inconclusive: 25.1 µM [inhibitor, single point] |  |
| CCN(CC)c1ccc2cc(-c3nnc(-c4ccccc4)o3)c(=O)oc2c1 | inconclusive: 0.316 µM [inhibitor, full curve, poor fit] |  |
| O=C(NC1CC(=O)N(c2cccc(F)c2)C1)c1ccc(S(=O)(=O)N2CCCCC2)cc1 (configuration not stated) |  | inactive: -2.44% |
| O=C1/C(=C\c2ccccc2)CCc2c1[nH]c1ccccc21 | inconclusive: 7.08 µM [inhibitor, partial curve, poor fit] |  |
| Cc1ccc2c(c1)cc(C(=O)NCc1ccc(F)cc1)n2C | inconclusive: 5.01 µM [inhibitor, full curve, poor fit] |  |
| COc1ccccc1NC(=S)N(Cc1ccco1)Cc1cc2cc(C)ccc2[nH]c1=O | inconclusive: 1.78 µM [inhibitor, full curve, poor fit] |  |
| Cc1nnc(N2CCC(C(=O)NCc3ccc(F)cc3)CC2)c2nn(-c3ccc(Cl)cc3)c(C)c12 | inconclusive: 35.5 µM [inhibitor, single point] |  |
| Clc1ccc2c(N/N=C/c3cccc(Br)c3)ccnc2c1 | inconclusive: 31.6 µM [inhibitor, partial curve, poor fit] |  |
| CN1CCN(CCCNC(=O)c2ccc(/C=C3\Oc4ccccc4N(Cc4ccc(Cl)cc4)C3=O)cc2)CC1 | inconclusive: 25.1 µM [inhibitor, single point] |  |
| O=C1/C(=C\c2cccnc2)CN(Cc2ccccc2)C/C1=C\c1cccnc1 | inconclusive: 6.31 µM [inhibitor, full curve] |  |
| CCOC(=O)C1=CN(Cc2ccco2)S(=O)(=O)NC1c1cccc(OC)c1 (configuration not stated) | inconclusive: 35.5 µM [inhibitor, partial curve, poor fit] |  |
| O=C(NN=C1CCCC1)c1n[nH]c2c1CCCC2 | inconclusive: 35.5 µM [inhibitor, single point] |  |
